Source: patent US20190309067A1 (BIONTECH, published 2019)
Where “and” joins values, the source holds several entries; their conditions need not be identical. Equal values may be shown once.

B1: Bstb_5750/5752 (bispecific antibody)
heavy: QVQLQQSGAELARPGASVKMS[letters of about 80 residues omitted]WGQGTTLTVSSASTKGPSVFPLAPSSKSTSGGTAALGCLVKDYFPEPVTVSWNSGALTSGVHTFPAVLQSSGLYSLSSVVTVPSSSLGTQTYICNVNHKPSNTKVDKRVEPKSCSGPGGGRSGGGGSGGGGSDIVMTQSPSSLTVTAGEKVTMSCKSSQSLLNSGNQKNYLTWYQQKPGQPPKLLIYWASTRESGVPDRFTGSGSGTDFTLTISSVQAEDLAVYYCQNDYSYPFTFGCGTKLEIKGGGGSGGGGSGGGGSGGGGSGGGGSQVQLQQPGAELVRPGASVKLSCKASGYTFTSYWINWVKQRPGQCLEWIGNIYPSDSYTNYNQKFKDKATLTVDKSSSTAYMQLSSPTSEDSAVYYCTRSWRGNSFDYWGQGTTLTVSS
light: not shown
B2: Bstb_369/367 (bispecific antibody)
heavy: QVQLQQSGAELARPGASVKMS[letters of about 80 residues omitted]WGQGTTLTVSSASTKGPSVFPLAPSSKSTSGGTAALGCLVKDYFPEPVTVSWNSGALTSGVHTFPAVLQSSGLYSLSSVVTVPSSSLGTQTYICNVNHKPSNTKVDKRVEPKSCSGPGGGRSGGGGSGGGGSEVQLQQSGPELVKPGASMKISCKASGYSFTGYTMNWVKQSHGKCLEWIGLINPYNGGTIYNQKFKGKATLTVDKSSSTAYMELLSLTSEDSAVYYCARDYGFVLDYWGQGTTLTVSSGGGGSGGGGSGGGGSGGGGSQIVLTQSPSIMSVSPGEKVTITCSASSSVSYMHWFQQKPGTSPKLWIYSTSNLASGVPARFSGRGSGTSYSLTISRVAAEDAATYYCQQRSNYPPWTFGCGTKLEIKGGSHHHHHH
light: not shown
notes: Fab-(scFv)2 (bispecific TriMAB): anti-CD3 Fab with one anti-CLDN6 scFv (IMAB206-SUBW, disulfide-stabilised) at the C-terminus of each chain
B3: Bstb_371/367 (bispecific antibody)
heavy: QVQLQQSGAELARPGASVKMS[letters of about 80 residues omitted]WGQGTTLTVSSASTKGPSVFPLAPCSKSTSEGTAALGCLVKDYFPEPVTVSWNSGALTSGVHTFPAVLQSSGLYSLSSVVTVPSSNFGTQTYTCNVDHKPSNTKVDKTVEPKSASGPGGGRSGGGGSGGGGSEVQLQQSGPELVKPGASMKISCKASGYSFTGYTMNWVKQSHGKCLEWIGLINPYNGGTIYNQKFKGKATLTVDKSSSTAYMELLSLTSEDSAVYYCARDYGFVLDYWGQGTTLTVSSGGGGSGGGGSGGGGSGGGGSQIVLTQSPSIMSVSPGEKVTITCSASSSVSYMHWFQQKPGTSPKLWIYSTSNLASGVPARFSGRGSGTSYSLTISRVAAEDAATYYCQQRSNYPPWTFGCGTKLEIKGGSHHHHHH
light: not shown
B4: Bstb_5749/5751 (bispecific antibody)
heavy: QVQLQQSGAELARPGASVKMS[letters of about 80 residues omitted]WGQGTTLTVSSASTKGPSVFPLAPSSKSTSGGTAALGCLVKDYFPEPVTVSWNSGALTSGVHTFPAVLQSSGLYSLSSVVTVPSSSLGTQTYICNVNHKPSNTKVDKRVEPKSCSGPGGGRSGGGGSGGGGSQVQLQQPGAELVRPGASVKLSCKASGYTFTSYWINWVKQRPGQCLEWIGNIYPSDSYTNYNQKFKDKATLTVDKSSSTAYMQLSSPTSEDSAVYYCTRSWRGNSFDYWGQGTTLTVSSGGGGSGGGGSGGGGSGGGGSDIVMTQSPSSLTVTAGEKVTMSCKSSQSLLNSGNQKNYLTWYQQKPGQPPKLLIYWASTRESGVPDRFTGSGSGTDFTLTISSVQAEDLAVYYCQNDYSYPFTFGCGTKLEIK
light: not shown
B5: Bstb_5726/5725 (bispecific antibody)
heavy: QVQLQQSGAELARPGASVKMS[letters of about 80 residues omitted]WGQGTTLTVSSASTKGPSVFPLAPSSKSTSGGTAALGCLVKDYFPEPVTVSWNSGALTSGVHTFPAVLQSSGLYSLSSVVTVPSSSLGTQTYICNVNHKPSNTKVDKRVEPKSCSGPGGGRSGGGGSGGGGSEVQLQQSGPELVKPGASMKISCKASGYSFTGYTMNWVKQSHGKCLEWIGLINPYNGGTIYNQKFKGKATLTVDKSSSTAYMELLSLTSEDSAVYYCARDYGFVLDYWGQGTTLTVSSGGGGSGGGGSGGGGSGGGGSQIVLTQSPSIMSVSPGEKVTITCSASSSVSYMHWFQQKPGTSPKLWIYSTSNLASGVPARFSGRGSGTSYSLTISRVAAEDAATYYCQQRSNYPPWTFGCGTKLEIK
light: not shown
notes: Tag-free Fab-(scFv)2, CH1 of IgG1

What was measured:
claudin 18.2 (CLDN18.2) = claudin 18.2 (CLDN18.2) (human); assay: cell-based or functional assay
claudin 6 (CLDN6) [1] = molecular target: T1, claudin 6 (CLDN6) (human, UniProt P56747 1-220); assay: flow cytometry on PA-1 cells endogenously expressing CLDN6, detection with Protein L-FITC
T1 construct: whole, on cells; also called TAA CLDN6
T1 sequence (looked up): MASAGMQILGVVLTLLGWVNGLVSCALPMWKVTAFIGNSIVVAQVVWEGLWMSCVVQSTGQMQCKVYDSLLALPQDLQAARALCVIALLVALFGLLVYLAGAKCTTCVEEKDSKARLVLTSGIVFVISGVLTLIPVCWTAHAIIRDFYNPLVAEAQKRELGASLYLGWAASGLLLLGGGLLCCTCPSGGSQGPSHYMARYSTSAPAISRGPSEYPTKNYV
Experimental: (§1) PA-1 cells endogenously expressing CLDN6 were harvested with 0.05% Trypsin/EDTA, washed with PBS and resuspended in FACS buffer (PBS containing 2% FCS and 0.1% sodium azide) at a concentration of 2×10⁶ cells/ml. 100 μl of the cell suspension was incubated with a concentration series of the different respective antibodies diluted in FACS buffer (11-point, 2-fold dilution series 9.77-10,000 ng/ml) and incubated for 45 min at 4° C. The cells were then washed three times with FACS buffer and incubated for 45 min at 4° C. with Protein L (Pierce/Thermo Scientific) conjugated with FITC by Squarix (Squarix Biotechnology, Marl, Germany) at a concentration of 4 μg/ml. Subsequently, the cells were washed twice and resuspended in 100 μl FACS buffer. Binding was analyzed by flow cytometry using a BD FACSArray (BD Biosciences). The EC50 of half maximal binding was determined using GraphPad Prism 6 One site—Specific binding.
(§2) Noteworthy, the binding curves of the tagged and tag-free bstbs are congruent.

claudin 6 (CLDN6) [2] = molecular target: T1, claudin 6 (CLDN6); assay: flow cytometry on PA-1 cells endogenously expressing CLDN6, detection with Protein L-FITC, half maximal binding
Experimental: as §1, §2

claudin 6 (CLDN6) [3] = molecular target: T1, claudin 6 (CLDN6); assay: cell-based or functional assay

| Binder | EC50 of specific lysis of NUGC-4_hCLDN18.2 cells, 48 h (claudin 18.2 (CLDN18.2)) [pM] | fold higher relative binding affinity compared to the bi-(scFv)2 reference protein (claudin 6 (CLDN6) [1]) [fold] | EC50 (claudin 6 (CLDN6) [2]) | EC50 of specific lysis, luciferase cytotoxicity assay, OV-90 target cells with human PBMC (E:T 5:1), 48 h (claudin 6 (CLDN6) [3]) [pM] | other results |
| --- | --- | --- | --- | --- | --- |
| B1 | 40.6 | – | – | – | fold EC50 against bi-scFv_5538 after normalisation to the plate reference (claudin 18.2 (CLDN18.2)): 23 fold; fold lower EC50 against bstb_5749/5751 (claudin 18.2 (CLDN18.2)): 1.8 fold |
| B2 | – | ~8 | ~1.9 µg/mL and ~19 nM | 39.7 | EC50 of lysis of OV-90 (48 h), sample with 5% HMW species against monomer (claudin 6 (CLDN6) [3]): 2.3 fold; EC50 of lysis of PA-1 (16 h), sample with 5% HMW species against monomer (claudin 6 (CLDN6) [3]): 1.5 fold; fold lower EC50 of lysis of OV-90 against the bi-(scFv)2 reference (claudin 6 (CLDN6) [3]): 55 fold |
| B3 | – | – | – | 117 | – |
| B4 | 70.9 | – | – | – | fold EC50 against bi-scFv_5506 after normalisation to the plate reference (claudin 18.2 (CLDN18.2)): 6 fold |
| B5 | – | ~8 | ~1.9 µg/mL and ~19 nM | – | – |
